The results in this text go back to the supplement of paper PMC4967469.

In general, IC50 refers to the concentration needed to halve the response being measured.

The IC50 comes from the fitted curve, where viability falls to half of the control; where the fit passes the top or lowest dose, that dose stands as a limit. The AUC spans the tested range (256-fold, ending at the top dose) of the same fit; it is 1 without any effect and falls as sensitivity rises. For part of these data: A top dose marked as inferred was calculated from the reported fits. For part of these data: Drugs with an entry number were screened twice under separate entries, and the two screens often disagree.

Common to all, as to assay: Viability of human cancer cell lines after 72 h of drug (GDSC screen)
Compound in one test: C#Cc1cccc(Nc2ncnc3cc(OC)c(OCCCCCCC(=O)NO)cc23)c1 [CUDC-101]
The note with it: top dose 5.12 µM; top dose inferred. The protocol: (§1)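 Human cancer cell lines in 384-well plates, medium with 10% serum, drug for 72 h over a 256-fold dose range (nine 2-fold or five 4-fold steps up to the top dose). Adherent lines were fixed and stained with the nucleic acid dye Syto60, suspension lines read with resazurin; signal relative to control wells, capped at 0 and 100%. One two-parameter sigmoid per drug and line, fitted in a mixed model over all curves with the slope shared within a line.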

Compound in the next test: Fc1cc(-c2ccnc(Nc3ccc(-n4cnc(N5CCOCC5)n4)cc3)n2)cc(N2CCOCC2)c1 [JNK-9L]
The note with it: top dose 5.12 µM; top dose inferred. The protocol: as §1

Compound in another test: OC[C@H](Cc1ccccc1)Nc1nc(Oc2ccc3c(c2)CCC3)nc2c1ncn2Cc1ccc(-c2ccccc2)cc1 [QS11]
The note with it: top dose 10.24 µM. The protocol:
as §1

Compound in a further test: COc1cc(F)c(F)c(Nc2ccc(I)cc2F)c1NS(=O)(=O)C1(C[C@H](O)CO)CC1 [RDEA119]
The note with it: top dose 5 µM, top dose inferred. The procedure:
as §1

Compound in a further test: NCC(=O)Nc1ccc(-n2nc(C(F)(F)F)cc2-c2ccc3c(ccc4ccccc43)c2)cc1 [OSU-03012]
The note with it: top dose 16 µM; top dose inferred. The procedure:
as §1

Take “K-562 (chronic myeloid leukaemia, suspension)”: the AUC with CUDC-101 was determined as 0.458; with JNK-9L, 0.834; with QS11, 0.929. Also, the IC50 with CUDC-101 was 0.248 µM; with JNK-9L it was 3.19 µM; with QS11, greater than 10.2 µM.
Turning to “KARPAS-1106P (B-cell lymphoma, suspension)”, in the test with RDEA119 (screen: GDSC drug entry 1014), the AUC was found to be 0.945 and the IC50 was greater than 5 µM. For the same cell line, in the test with RDEA119 (screen: GDSC drug entry 1526), the AUC worked out at 0.99 and the IC50 was greater than 5 µM.
Regarding “KASUMI-1 (acute myeloid leukaemia, suspension)”, in the test with JNK-9L, the AUC turned out to be 0.518 and the IC50 came to 0.358 µM. In the test with RDEA119 (screen: GDSC drug entry 1526), the AUC amounted to 0.64 and the half-maximal inhibitory concentration (IC50) turned out to be 0.764 µM.
KATOIII (stomach, semi-adherent): in the test with RDEA119 (screen: GDSC drug entry 1014), the AUC turned out to be 0.847 and the IC50 was determined as 3.23 µM.
As to “KNS-62 (lung squamous cell carcinoma, adherent)”, in the test with RDEA119 (screen: GDSC drug entry 1014), the AUC amounted to 0.748 and the IC50 is 2.27 µM. Also, in the test with RDEA119 (screen: GDSC drug entry 1526), the AUC is 0.616 and the IC50 was 0.755 µM.
For KP-1N (pancreas, adherent), the AUC amounted to 0.611 with JNK-9L; 0.866 in the test with QS11; 0.942 in the test with RDEA119 (screen: GDSC drug entry 1014); 0.846 in the test with RDEA119 (screen: GDSC drug entry 1526); 0.65 with OSU-03012. Moreover, the IC50 with JNK-9L is 0.657 µM; with QS11 it was 9.93 µM; with RDEA119 (screen: GDSC drug entry 1014) it was greater than 5 µM; with RDEA119 (screen: GDSC drug entry 1526), 3.91 µM; with OSU-03012 it was 2.66 µM.
Turning to MEL-HO (melanoma, adherent), in the test with RDEA119 (screen: GDSC drug entry 1014), the AUC came out at 0.249 and the IC50 was 0.0587 µM. In the test with RDEA119 (screen: GDSC drug entry 1526), the AUC worked out at 0.269 and the 50% inhibitory concentration (IC50) stood at 0.068 µM.
For the cell line “MHH-CALL-2 (B-cell leukaemia, suspension)”, in the test with RDEA119 (screen: GDSC drug entry 1014), the AUC was 0.878 and the IC50 was 2.88 µM. Also, in the test with RDEA119 (screen: GDSC drug entry 1526), the AUC worked out at 0.996 and the half-inhibitory concentration (IC50) is greater than 5 µM.
For MKN7 (stomach, adherent), in that order: 0.729, 1.8 µM, 0.924 and greater than 5 µM.
For the cell line MM1S (myeloma, suspension), in the test with RDEA119 (screen: GDSC drug entry 1014), the AUC was 0.782 and the IC50 stood at 1.97 µM.
For the cell line “MOLM-16 (acute myeloid leukaemia, suspension)”, in the test with RDEA119 (screen: GDSC drug entry 1014), the AUC turned out to be 0.751 and the IC50 stood at 1.48 µM. In addition, in the test with RDEA119 (screen: GDSC drug entry 1526), the AUC was 0.902 and the 50% inhibitory concentration (IC50) is greater than 5 µM.
With “MOLT-16 (T-cell lymphoblastic leukaemia, suspension)”, the AUC with RDEA119 (screen: GDSC drug entry 1014) is 0.991; in the test with RDEA119 (screen: GDSC drug entry 1526), 0.95. Moreover, the IC50 in the test with RDEA119 (screen: GDSC drug entry 1014) and with RDEA119 (screen: GDSC drug entry 1526) was greater than 5 µM each time.
For NCC010 (kidney, adherent), in the test with RDEA119 (screen: GDSC drug entry 1014), the AUC came out at 0.927 and the IC50 was greater than 5 µM. Besides, in the test with RDEA119 (screen: GDSC drug entry 1526), the AUC was 0.939 and the IC50 is greater than 5 µM.
Consider “NCI-H146 (small cell lung carcinoma, suspension)”, for which, in the test with RDEA119 (screen: GDSC drug entry 1014), the AUC came out at 0.995 and the concentration for half-maximal inhibition (IC50) is greater than 5 µM. In the test with RDEA119 (screen: GDSC drug entry 1526), the AUC worked out at 0.995 and the IC50 was greater than 5 µM.
For the cell line “NCI-H508 (large intestine, semi-adherent)”, the AUC with RDEA119 (screen: GDSC drug entry 1014) is 0.579; with RDEA119 (screen: GDSC drug entry 1526), 0.776. In addition, the results for the 50% inhibitory concentration (IC50) with RDEA119 (screen: GDSC drug entry 1014) and with RDEA119 (screen: GDSC drug entry 1526) were 0.596 µM and 3.66 µM, respectively.
Consider NCI-H835 (lung carcinoid, suspension), for which the figures for the AUC with RDEA119 (screen: GDSC drug entry 1014) and with RDEA119 (screen: GDSC drug entry 1526) were 0.991 and 0.987, respectively. Further, the IC50 in the test with RDEA119 (screen: GDSC drug entry 1014) and with RDEA119 (screen: GDSC drug entry 1526) was greater than 5 µM each time.
For the cell line NCI-H929 (myeloma, suspension), in the test with RDEA119 (screen: GDSC drug entry 1014), the AUC came out at 0.654 and the IC50 is 0.778 µM. In addition, in the test with RDEA119 (screen: GDSC drug entry 1526), the AUC is 0.615 and the IC50 amounted to 0.613 µM.
Taken in the same sequence, the figures for “NCI-H1105 (small cell lung carcinoma, suspension)” were 0.993, greater than 5 µM, 0.986 and greater than 5 µM.
For “NCI-H1341 (small cell lung carcinoma, suspension)”, in that order: 0.937, greater than 5 µM, 0.955 and greater than 5 µM.
Consider “NCI-H1650 (lung adenocarcinoma, adherent)”, for which, in the test with RDEA119 (screen: GDSC drug entry 1526), the AUC amounted to 0.94 and the IC50 was greater than 5 µM.
“NCI-H2066 (small cell lung carcinoma, adherent)”: in the test with RDEA119 (screen: GDSC drug entry 1014), the AUC is 0.962 and the IC50 was greater than 5 µM. Further, in the test with RDEA119 (screen: GDSC drug entry 1526), the AUC came to 0.969 and the IC50 was greater than 5 µM.
On to NCI-N87 (stomach, adherent), for which the AUC is 0.904 with RDEA119 (screen: GDSC drug entry 1014) and 0.965 with RDEA119 (screen: GDSC drug entry 1526). Also, the IC50 in the test with RDEA119 (screen: GDSC drug entry 1014) and in the test with RDEA119 (screen: GDSC drug entry 1526) was greater than 5 µM throughout.
